Two molecules from PubChem BioAssay (NCI) can be followed below.

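1) Cells in 96-well plates. 2) Compound, 48 h, 5 concentrations. 3) Linear interpolation between surrounding doses. 4) Unreached endpoint = highest concentration. Here, GI50 denotes the concentration required for 50% inhibition of growth. The concentration for full growth arrest is given as TGI.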

In the assay the test system is NCI-H322M lung. Put plainly: growth of human tumour cells (NCI), 48 h.

As to `O=C(COc1ccc(NC(=O)Nc2ccccc2)cc1)N=Nc1c(O)[nH]c2ccc([N+](=O)[O-])cc12`, the GI50 is 3.05 µM and the TGI was 11.8 µM.

Consider `Cc1ccc(C(=O)NCCCNc2nc(Nc3ccc(N4CCN(C)CC4)cc3)nc3ccsc23)cc1`, for which the GI50 is 3.97 µM and the TGI came out at 15.7 µM.
